Measurements published in PubChem BioAssay AID1461 (National Center for Advancing Translational Sciences (NCATS), 2008).
In all, about 220,000 compounds went through this assay and about 2,300 (1%) were called active. Inconclusive results, whose numbers are uncertain, are shown with a selection of clear calls. Calls follow the shape of the dose curve; as a rule, active = well fitted inhibition curve with a large enough effect; inconclusive = small, poorly fitted or top-dose-only effect, or effect the other way; inactive = no such curve, though single readings can be large or run the other way. No potency is given beside an inconclusive call; the fits are too rough.
Also: nearly all actives have a fitted effect of over 50% in size.
Potency is read from the fitted curve at half-maximal effect; tags tell the direction and shape of the fitted curve.

Each compound was assayed against Neuropeptide S receptor (Homo sapiens) (UniProt Q6W5P4) (assay: qHTS Assay for Antagonists of the Neuropeptide S Receptor: cAMP Signal Transduction). Conditions: CHO-NPSR cells, cAMP TR-FRET, antagonist mode; series mostly up to 38.3 µM.
Chain of UniProt Q6W5P4 (Q6W5P4 whole entry, looked up): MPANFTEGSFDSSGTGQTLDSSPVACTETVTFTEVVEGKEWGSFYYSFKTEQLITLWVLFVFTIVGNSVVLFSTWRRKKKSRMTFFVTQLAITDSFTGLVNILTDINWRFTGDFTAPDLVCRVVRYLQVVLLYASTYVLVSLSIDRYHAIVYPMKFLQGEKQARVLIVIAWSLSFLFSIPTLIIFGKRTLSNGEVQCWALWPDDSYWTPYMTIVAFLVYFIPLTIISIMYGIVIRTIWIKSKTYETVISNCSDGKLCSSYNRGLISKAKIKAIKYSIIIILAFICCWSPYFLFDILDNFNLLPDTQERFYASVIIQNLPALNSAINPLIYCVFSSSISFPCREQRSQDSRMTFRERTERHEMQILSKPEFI
For `OC(c1cc(-c2ccc(C(F)(F)F)cc2)nc(C(F)(F)F)c1)C1CCCCN1` (stereo unspecified), the Potency was inconclusive [activator, single point]. With `COc1cccc(OCc2cc(C3Nc4ccccc4C(=O)N3Cc3ccco3)ccc2OC)c1` (stereo unspecified) the Potency was inconclusive [inhibitor, partial curve]. For `COc1ccccc1NC(=O)Nc1ccc(F)c(F)c1`, the Potency was “inactive”. For `Cc1nn(-c2cc(N3CCCCCC3)ccc2[N+](=O)[O-])c(=O)c2ccccc12`, the Potency was inconclusive [inhibitor, single point]. With `CN1CCN(c2ncnc3c2[nH]c2ccc(F)cc23)CC1` the Potency was “inactive”. With `CCOC(=O)c1c(NC(=O)CSc2nc3cc(Cl)ccc3c(=O)n2Cc2ccco2)sc(C(=O)N(C)C)c1C` the Potency was inconclusive [inhibitor, single point]. For `CCCCC1(Cc2ccc([N+](=O)[O-])cc2)C(=O)N(c2ccccc2)N(c2ccccc2)C1=O`, the Potency was “inactive”. `COc1cc(/C=N/NC(=O)c2cccc(NC(=O)c3ccccc3Cl)c2)ccc1O` was tested, and the Potency was “inactive”. For `C=CCn1c(N)cc(=O)nc1SCC(=O)N1CCN(c2ccc(F)cc2)CC1`, the Potency was “inactive”. For `CCOC(=O)CN(C(=O)CSc1nnc(Cc2ccccc2)n1-c1ccc(C)cc1)c1ccccc1`, the Potency was inconclusive [inhibitor, partial curve]. With `Cc1ccccc1OCC(=O)N/N=C/c1cn(Cc2ccccc2)c2ccccc12` the Potency was “inactive”. With `COc1ccc(C(=O)CSc2nnc(-c3ccoc3C)n2CC2CCCO2)cc1` (stereo unspecified) the Potency was “inactive”. `Cn1c(=O)c2ncn(CC(=O)Nc3cccc(-c4nc5ccccc5s4)c3)c2n(C)c1=O` was tested, and the Potency was “inactive”. `CCc1sc(N2C(=O)C3C4CCC(C4=C(C)C)C3C2=O)nc1-c1ccccc1` (stereo unspecified) was tested, and the Potency was inconclusive [inhibitor, single point]. `COc1ccc(-c2nnc(SCc3nnc(-c4ccc(Cl)cc4)o3)n2-c2ccccc2)cc1` was tested, and the Potency was inconclusive [inhibitor, single point]. For `COC(=O)c1ccc(/C=N/OCC(=O)NC2CCCC(C)C2C)cc1` (stereo unspecified), the Potency was inconclusive [inhibitor, single point]. In the case of `COc1ccc(C2CC(=O)C3=C(C2)Nc2ncnn2C3c2ccccc2)cc1` (stereo unspecified), the Potency was inconclusive [inhibitor, single point]. For `FC(F)(F)c1nc2ccccc2[nH]1`, the Potency was inconclusive [activator, single point]. For `CCOC(=O)N1CCN(c2nc(C(F)(F)F)nc3c(C)cc(C)cc23)CC1`, the Potency was inconclusive [inhibitor, partial curve]. In the case of `O=C(O)/C=C/c1ccc2noc(-c3ccccc3)c2c1`, the Potency was “inactive”. With `Cc1ccc(C2Nc3ccccc3C(=O)N2Cc2ccco2)cc1` (stereo unspecified) the Potency was inconclusive [inhibitor, partial curve, poor fit]. In the case of `COc1ccc(C(=O)N2CCC(C(=O)Nc3ccc(OC)c(OC)c3)CC2)cc1`, the Potency was “inactive”. For `CCN(CCCn1c(SCC#N)nc2ccccc2c1=O)c1ccccc1`, the Potency was inconclusive [inhibitor, partial curve, poor fit]. In the case of `Cc1ccc(C)c(NC(=O)COc2cccc3c2CCN(Cc2ccccc2)C3=O)c1`, the Potency was “inactive”. For `Cn1c(-c2ccccc2)c(C(=O)CCl)c2ccccc21`, the Potency was inconclusive [inhibitor, single point]. With `N#CCCCSc1nnc(-c2ccc(Cl)cc2)n1-c1ccccc1` the Potency was inconclusive [inhibitor, full curve]. With `CCn1c(=O)n(CC)c2cc(S(=O)(=O)Nc3ccccc3C)c(C)cc21` the Potency was inconclusive [inhibitor, partial curve, poor fit]. `CN1C(=O)/C(=C/c2ccc(O)c([N+](=O)[O-])c2)NC1=S` was tested, and the Potency was inconclusive [activator, partial curve]. In the case of `COc1cc(/C=C(\C#N)c2nc3c(s2)CCCC3)ccc1O`, the Potency was inconclusive [inhibitor, single point]. `CCCc1ccc(OCc2nc(-c3ccc(NC(=O)c4cccs4)cc3)no2)cc1` was tested, and the Potency was inconclusive [inhibitor, single point]. `O=C(CSc1nnc(-c2ccco2)o1)c1ccccc1` was tested, and the Potency was “inactive”. For `CCN1C/C(=C/c2cccc([N+](=O)[O-])c2)C(=O)/C(=C/c2cccc([N+](=O)[O-])c2)C1`, the Potency was active: 2.51 µM. `Cc1cc(=O)[nH]c(SCc2nc3ccccc3s2)n1` was tested, and the Potency was inconclusive [inhibitor, single point]. For `C=CCOC(=O)C1=C(C)Nc2nnnn2C1c1cccc(OC)c1OC` (stereo unspecified), the Potency was “inactive”. `Clc1ccccc1CSc1nnc(/C=C/c2ccccc2)o1` was tested, and the Potency was inconclusive [inhibitor, single point]. With `O=C(OCc1cc(=O)n2c(n1)sc1ccccc12)c1ccc(O)cc1` the Potency was “inactive”. `Cc1ccc(C(=O)c2cc(C)sc2NC(=O)CN2CCN(C(=O)c3ccco3)CC2)cc1` was tested, and the Potency was inconclusive [inhibitor, partial curve]. For `O=C(NCc1ccccc1)C(=O)Nc1nccs1`, the Potency was “inactive”. For `CC1CCCC(C)N1C(=O)c1ccccc1Nc1ccc(SC(F)F)cc1` (stereo unspecified), the Potency was inconclusive [inhibitor, single point]. With `CC1=NOC(=O)/C1=C/c1ccc(-c2ccc(Cl)cc2)o1` the Potency was inconclusive [inhibitor, single point]. `CN(C(=O)COc1ccccc1C(=O)NCCc1ccccc1)c1ccccc1` was tested, and the Potency was “inactive”. `CC(=O)c1cccc(NC(=O)Cc2coc3cc4c(cc23)CCC4)c1` was tested, and the Potency was “inactive”. For `CCn1c(SCC(=O)Nc2ccc(C(=O)OC)cc2)nnc1-c1cccs1`, the Potency was inconclusive [inhibitor, single point]. For `CCc1ccc2c(CN3CCN(S(=O)(=O)c4ccc5c(c4)OCCO5)CC3)cc(=O)oc2c1`, the Potency was “inactive”. In the case of `CCOC(=O)c1nnc(-c2ccc(C)cc2)nc1Sc1ccccc1Cl`, the Potency was inconclusive [inhibitor, single point]. In the case of `CCCCc1ccc(Nc2ncccc2C#N)cc1`, the Potency was inconclusive [inhibitor, single point].
